In article PMC8326426, “Resveratrol-induced Sirt1 phosphorylation by LKB1 mediates mitochondrial metabolism” (The Journal of Biological Chemistry, 2021):
Results are given in words; binding and its absence hold for the method and conditions named. Binding seen in cells or lysates may run through a third protein. Some results given as binding are weak or reduced against the parent protein; the word gives no strength. For part of these data: Tags and fused reporters may be left off the sequences shown. One block for each molecule: values may come before it.

Chains of the proteins cited; added tags and fusions are not shown. Lines headed by an entry give the natural chain unless they say otherwise; changes in a name come on top. A line that says so, or that is headed by a name, gives the form on record, which may keep a tag or linker. Residues count along the entry.
HA-tagged Sirt1 core domain, aa 234 to 510 (Q96EB6, residues 234-510): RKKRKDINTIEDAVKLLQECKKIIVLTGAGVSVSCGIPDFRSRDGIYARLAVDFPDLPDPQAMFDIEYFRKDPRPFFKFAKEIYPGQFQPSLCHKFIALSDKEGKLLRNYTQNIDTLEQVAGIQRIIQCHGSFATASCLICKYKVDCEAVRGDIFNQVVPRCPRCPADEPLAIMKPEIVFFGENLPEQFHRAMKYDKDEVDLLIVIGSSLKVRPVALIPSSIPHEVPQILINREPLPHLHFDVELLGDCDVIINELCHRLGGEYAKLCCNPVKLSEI
FLAG-Sirt1 C terminus (WT), aa 511 to 747 (Q96EB6, residues 511-747): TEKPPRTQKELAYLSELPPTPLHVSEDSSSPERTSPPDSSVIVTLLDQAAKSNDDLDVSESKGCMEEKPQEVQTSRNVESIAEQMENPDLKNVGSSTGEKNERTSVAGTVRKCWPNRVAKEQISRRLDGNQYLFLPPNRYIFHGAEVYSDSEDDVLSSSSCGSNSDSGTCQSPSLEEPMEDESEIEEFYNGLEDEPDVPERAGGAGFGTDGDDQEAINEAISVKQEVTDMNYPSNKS
FLAG-Sirt1 C terminus 3D mutant, aa 511 to 747 (Q96EB6, form named): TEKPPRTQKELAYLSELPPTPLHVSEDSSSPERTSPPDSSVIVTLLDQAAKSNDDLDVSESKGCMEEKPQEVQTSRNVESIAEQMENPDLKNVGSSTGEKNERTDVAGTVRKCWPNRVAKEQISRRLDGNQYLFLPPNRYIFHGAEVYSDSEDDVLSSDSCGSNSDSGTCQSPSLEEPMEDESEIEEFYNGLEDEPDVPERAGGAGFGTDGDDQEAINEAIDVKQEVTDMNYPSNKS
FLAG-Sirt1 C terminus 3D mutant with ESA deletion (3D ΔESA), aa 511 to 747 (Q96EB6, form named): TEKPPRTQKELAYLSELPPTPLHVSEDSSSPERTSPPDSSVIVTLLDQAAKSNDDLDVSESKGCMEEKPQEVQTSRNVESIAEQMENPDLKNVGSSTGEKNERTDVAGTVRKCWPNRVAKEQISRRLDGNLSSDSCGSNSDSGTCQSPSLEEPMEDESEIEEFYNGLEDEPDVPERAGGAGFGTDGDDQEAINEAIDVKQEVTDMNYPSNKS
FLAG-Sirt1 C terminus ESA deletion mutant (WT ΔESA), aa 511 to 747 (Q96EB6, form named): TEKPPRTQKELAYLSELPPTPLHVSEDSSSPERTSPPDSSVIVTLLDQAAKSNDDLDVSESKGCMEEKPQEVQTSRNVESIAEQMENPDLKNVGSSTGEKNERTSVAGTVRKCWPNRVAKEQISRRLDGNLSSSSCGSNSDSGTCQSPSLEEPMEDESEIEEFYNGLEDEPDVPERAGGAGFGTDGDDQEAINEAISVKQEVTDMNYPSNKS
FLAG-Sirt1 C terminus 3A mutant, aa 511 to 747 (Q96EB6, form named): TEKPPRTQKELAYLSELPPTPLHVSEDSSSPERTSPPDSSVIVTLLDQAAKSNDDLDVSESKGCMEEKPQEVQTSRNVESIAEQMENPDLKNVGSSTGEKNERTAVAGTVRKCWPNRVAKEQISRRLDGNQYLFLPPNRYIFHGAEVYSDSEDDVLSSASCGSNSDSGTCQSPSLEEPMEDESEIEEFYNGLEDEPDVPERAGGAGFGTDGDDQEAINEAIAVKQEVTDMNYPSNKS

Legend:
[1] = molecular target: GST-Sirt1 3D mutant (C terminus), aa 511 to 747 (human) (UniProt Q96EB6); assay: pull-down; GST pull-down: GST-Sirt1 C terminus (WT or mutants) purified from E. coli incubated with lysates of HEK293T cells transfected with GFP-Sirt1 core domain; bound fraction immunoblotted; only the target purified
[2] = molecular target: GST-Sirt1 WT (C terminus), aa 511 to 747 (human) (UniProt Q96EB6); assay: as above
[3] = molecular target: GST-Sirt1 C terminus 3D mutant with ESA deletion, aa 511 to 747 (human) (UniProt Q96EB6); assay: as above
[4] = molecular target: GST-Sirt1 C terminus ESA deletion mutant, aa 511 to 747 (human) (UniProt Q96EB6); assay: as above
[5] = molecular target: FLAG-Sirt1 C terminus ESA deletion mutant (WT ΔESA), aa 511 to 747 (human) (UniProt Q96EB6); assay: co-IP; HEK293T cotransfected with FLAG-Sirt1 C terminus (WT or mutants) and HA-tagged core domain; lysates immunoprecipitated with anti-FLAG, immunoblot; lysis buffer 50 mM Tris-HCl pH 7.5, 120 mM NaCl, 0.2% NP-40, 1 mM EDTA, 1 mM DTT
[6] = molecular target: FLAG-Sirt1 C terminus 3A mutant, aa 511 to 747 (human) (UniProt Q96EB6); assay: as above
[7] = molecular target: FLAG-Sirt1 C terminus 3D mutant, aa 511 to 747 (human) (UniProt Q96EB6); assay: as above
[8] = molecular target: FLAG-Sirt1 C terminus 3D mutant with ESA deletion (3D ΔESA), aa 511 to 747 (human) (UniProt Q96EB6); assay: as above
[9] = molecular target: FLAG-Sirt1 C terminus (WT), aa 511 to 747 (human) (UniProt Q96EB6); assay: as above
[10] = molecular target: T1, Sirt1, endogenous in C2C12 myotubes (mouse (endogenous in C2C12)) (UniProt Q923E4); assay: co-IP; C2C12 myotubes, with or without 25 uM resveratrol for 6 h; lysates immunoprecipitated with antibody against Sirt1, immunoblot with anti-LKB1
T1 sequence: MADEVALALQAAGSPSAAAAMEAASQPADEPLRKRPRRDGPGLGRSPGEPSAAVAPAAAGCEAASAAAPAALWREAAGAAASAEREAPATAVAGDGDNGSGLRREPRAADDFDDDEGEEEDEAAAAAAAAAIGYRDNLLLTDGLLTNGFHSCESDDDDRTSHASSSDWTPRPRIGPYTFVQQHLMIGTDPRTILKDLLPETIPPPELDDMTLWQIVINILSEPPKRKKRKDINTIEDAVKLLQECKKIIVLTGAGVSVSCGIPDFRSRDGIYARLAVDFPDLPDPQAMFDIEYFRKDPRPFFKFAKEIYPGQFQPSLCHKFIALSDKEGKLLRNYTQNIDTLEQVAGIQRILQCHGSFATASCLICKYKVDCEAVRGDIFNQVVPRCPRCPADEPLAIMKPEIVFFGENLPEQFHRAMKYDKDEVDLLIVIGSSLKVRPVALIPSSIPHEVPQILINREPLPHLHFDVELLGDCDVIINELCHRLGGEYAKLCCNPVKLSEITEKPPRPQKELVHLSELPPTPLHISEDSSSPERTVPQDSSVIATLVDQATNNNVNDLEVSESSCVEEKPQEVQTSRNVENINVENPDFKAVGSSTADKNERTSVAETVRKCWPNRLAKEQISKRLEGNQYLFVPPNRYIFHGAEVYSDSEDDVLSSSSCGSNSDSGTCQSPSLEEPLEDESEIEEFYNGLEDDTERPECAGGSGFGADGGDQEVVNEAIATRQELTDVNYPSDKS

FLAG-LKB1 = molecular target: T2, FLAG-LKB1 (UniProt Q15831); assay: co-IP; HEK293T transfected with FLAG-LKB1 plasmid, treated with 25 uM resveratrol for 6 h; immunoprecipitated by anti-FLAG and eluted with 3xFLAG peptide; bound fraction blotted with anti-STRADα and anti-MO25α
T2 sequence: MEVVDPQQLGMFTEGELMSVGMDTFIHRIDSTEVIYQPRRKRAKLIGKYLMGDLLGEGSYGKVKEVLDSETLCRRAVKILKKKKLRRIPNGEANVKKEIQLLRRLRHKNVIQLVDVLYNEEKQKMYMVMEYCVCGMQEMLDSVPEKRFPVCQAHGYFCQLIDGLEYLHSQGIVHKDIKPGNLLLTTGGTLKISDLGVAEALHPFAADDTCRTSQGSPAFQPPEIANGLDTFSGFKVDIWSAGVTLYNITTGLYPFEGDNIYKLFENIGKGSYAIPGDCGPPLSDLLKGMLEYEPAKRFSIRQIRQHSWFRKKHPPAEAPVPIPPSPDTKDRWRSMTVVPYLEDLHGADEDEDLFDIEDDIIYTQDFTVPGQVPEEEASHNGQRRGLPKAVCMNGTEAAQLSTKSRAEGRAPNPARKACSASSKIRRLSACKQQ

Molecule: GFP-Sirt1 core domain, aa 234 to 510 (from UniProt Q96EB6 234-510) (domain or fragment)
binding [1]: binds
binding [2]: binds
binding [3]: no binding
binding [4]: no binding

Molecule: HA-tagged Sirt1 core domain, aa 234 to 510 (from UniProt Q96EB6 234-510) (domain or fragment)
binding [5]: no binding
binding [6]: binds
binding [7]: binds
binding [8]: no binding
binding [9]: binds

B1: LKB1, endogenous in C2C12 myotubes (protein, UniProt Q9WTK7 1-436)
chain: MDVADPEPLGLFSEGELMSVGMDTFIHRIDSTEVIYQPRRKRAKLIGKYLMGDLLGEGSYGKVKEVLDSETLCRRAVKILKKKKLRRIPNGEANVKKEIQLLRRLRHRNVIQLVDVLYNEEKQKMYMVMEYCVCGMQEMLDSVPEKRFPVCQAHGYFRQLIDGLEYLHSQGIVHKDIKPGNLLLTTNGTLKISDLGVAEALHPFAVDDTCRTSQGSPAFQPPEIANGLDTFSGFKVDIWSAGVTLYNITTGLYPFEGDNIYKLFENIGRGDFTIPCDCGPPLSDLLRGMLEYEPAKRFSIRQIRQHSWFRKKHPLAEALVPIPPSPDTKDRWRSMTVVPYLEDLHGRAEEEEEEDLFDIEDGIIYTQDFTVPGQVLEEEVGQNGQSHSLPKAVCVNGTEPQLSSKVKPEGRPGTANPARKVCSSNKIRRLSACKQQ
binding [10]: binds

More lines, now with the values ahead:

binding (FLAG-LKB1): binds
B2: MO25α, endogenous in HEK293T cells (protein, UniProt Q9Y376 1-341)
chain: MPFPFGKSHKSPADIVKNLKESMAVLEKQDISDKKAEKATEEVSKNLVAMKEILYGTNEKEPQTEAVAQLAQELYNSGLLSTLVADLQLIDFEGKKDVAQIFNNILRRQIGTRTPTVEYICTQQNILFMLLKGYESPEIALNCGIMLRECIRHEPLAKIILWSEQFYDFFRYVEMSTFDIASDAFATFKDLLTRHKLLSAEFLEQHYDRFFSEYEKLLHSENYVTKRQSLKLLGELLLDRHNFTIMTKYISKPENLKLMMNLLRDKSRNIQFEAFHVFKVFVANPNKTQPILDILLKNQAKLIEFLSKFQNDRTEDEQFNDEKTYLVKQIRDLKRPAQQEA

binding (FLAG-LKB1): binds
B3: STRADα, endogenous in HEK293T cells (protein, UniProt Q7RTN6 1-431)
chain: MSFLVSKPERIRRWVSEKFIVEGLRDLELFGEQPPGDTRRKTNDASSESIASFSKQEVMSSFLPEGGCYELLTVIGKGFEDLMTVNLARYKPTGEYVTVRRINLEACSNEMVTFLQGELHVSKLFNHPNIVPYRATFIADNELWVVTSFMAYGSAKDLICTHFMDGMNELAIAYILQGVLKALDYIHHMGYVHRSVKASHILISVDGKVYLSGLRSNLSMISHGQRQRVVHDFPKYSVKVLPWLSPEVLQQNLQGYDAKSDIYSVGITACELANGHVPFKDMPATQMLLEKLNGTVPCLLDTSTIPAEELTMSPSRSVANSGLSDSLTTSTPRPSNGDSPSHPYHRTFSPHFHHFVEQCLQRNPDARPSASTLLNHSFFKQIKRRASEALPELLRPVTPITNFEGSQSQDHSGIFGLVTNLEELEVDDWEF
